# In the supplement of paper PMC3334620:
# Over roughly 33,000 sequences, “E-score (-0.5 to 0.5)” has its median near -0.01; the highest 2% begin near 0.26. The list shows a part of the results.
# Biological target: Ste12 (UniProt P13574)
# Assay: PBM E-score (8-mer binding enrichment) (E-score (-0.5 to 0.5)); higher = stronger / more preferred TF binding; most listed sequences are background and not binding sites
# Conditions: protein concentration: 200 nM; construct: GST-DNA-binding domain
# Summary of the method: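 Yeast transcription factors carrying a GST tag, as full-length proteins or DNA-binding domains, were produced by PURExpress in vitro transcription/translation. About 100-200 nM protein was applied to universal all-10-mer Agilent arrays, double-stranded by primer extension on fresh or once-stripped slides. Bound protein was detected with fluorescent anti-GST, and scans were normalised with masliner. The Universal PBM Analysis Suite gave each ungapped eight-base word, pooled with its reverse complement, an E-score, a modified Wilcoxon-Mann-Whitney statistic.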
row,Sequence,PBM E-score
1,CCCCGCGG,0.0761
2,GGTCGCTA,-0.0448
3,AAGCTATG,-0.175
4,TCGCTCCA,-0.0151
5,GCACAACA,-0.0193
6,ACTCGGAT,0.104
7,GGTTTATA,0.199
8,GATCGTCA,-0.112
9,AAGAGCAG,-0.133
10,CAAGTCGA,-0.171
11,AGCCCGAA,-0.0955
12,CGCACGAA,0.113
13,GACTTCAA,0.0552
14,ACTTGGTG,-0.0265
15,ACAGCGTG,0.061
16,CCGGTGTC,-0.16
17,AGAGAACT,-0.0534
18,AAGCGTAG,-0.0163
19,AATGAGAT,0.142
20,ATAACCAG,-0.0264
21,ATCGCCAG,0.021
22,CCAAAGAC,-0.171
23,ATTCTCTA,-0.035
24,CCAGATGC,-0.18
25,GACGCCCC,0.0563

row,Sequence,PBM E-score
1,ACACAAGT,0.0836
2,TAAGTCCA,-0.0798
3,CGTGTTTC,0.36
4,TCGCCGAA,0.0616
5,TCCTCCGA,-0.0761
6,ATATCAGA,0.0787
7,GTAGATAA,0.183
8,ACGGAGGG,-0.0302
9,CCTGTACA,-0.0588
10,AGTTACCA,-0.0617
11,AGCATGGC,-0.0799
12,CATGTGCA,-0.191
13,CCAATTCA,0.12
14,CTTAAGTA,0.0362
15,GGTAAATA,0.127
16,CCACACAG,0.0795
17,ATACATAA,0.21
18,GCCATATA,-0.0143
19,CGCAAGAC,-0.188
20,GCGGGATA,0.133
21,AGGAGACG,-0.372
22,CAGCGACG,-0.0974
23,AGCGATCC,-0.148
24,GCTCTGGA,0.00508
25,AGCTCCCT,-0.285

row,Sequence,PBM E-score
1,AACGATGT,-0.0304
2,CAGGCATG,0.0594
3,GTTACGTA,-0.187
4,CATAGAAA,0.21
5,ATGCAGGA,-0.0982
6,GCTAGACC,-0.17
7,AGACAGTC,-0.102
8,AACTGAAG,0.158
9,CCTCGGAG,0.0196
10,AGCCAGAA,0.0307
11,TCAAGGCA,-0.169
12,GCAATGGC,-0.00313
13,AACGGATT,0.146
14,AGGTCCAA,-0.213
15,CAGGATAA,0.154
16,CCAGGAAC,-0.191
17,ATGCGGGG,-0.0837
18,CTCATTTA,0.103
19,CAATATTC,0.00821
20,GCTTGAAC,0.0421
21,CATCAGAG,-0.0298
22,CCGGCGGA,0.144
23,AGCAATCC,-0.166
24,ACCGATAG,-0.063
25,CCGGACCG,0.00062

row,Sequence,PBM E-score
1,TACAAAGA,0.067
2,CAAGTGCC,-0.104
3,ACGTTGTA,-0.0121
4,GGGACACC,-0.0313
5,TACTGTGA,0.0419
6,CTCGGGAC,-0.0582
7,ACTGGGCG,-0.0655
8,ACGGTGCA,-0.0738
9,AAATGTTA,0.247
10,CAAATTAG,0.208
11,GGTAATGA,0.0985
12,GGGCTGCA,-0.0952
13,GGCTGTAC,-0.248
14,ATCGACCC,0.162
15,AAGGATGG,-0.114
16,CCTGGCCA,-0.16
17,ATCGTCGA,-0.119
18,GCTAGAAC,-0.1
19,AGGTCAAC,-0.202
20,CCTGGAAC,0.139
21,GGGTGCAC,-0.127
22,CCAGATCA,0.139
23,GTCTCTCA,-0.184
24,ATAATACC,0.161
25,CGTCCGCC,-0.0636

row,Sequence,PBM E-score
1,GATGCGGA,-0.044
2,AACGCTAT,-0.158
3,ACGATCCT,-0.0389
4,CAGGGCCA,-0.365
5,CTGATTTC,0.0354
6,TAATAAAA,0.225
7,GCCAAAAC,0.0568
8,CACACCCG,0.0642
9,CTCAGCCA,-0.0414
10,CGAATGCG,0.00677
11,TAGTCGCA,0.0917
12,ACTGTCCC,0.0544
13,AAGAGGGC,-0.189
14,ACAGGACC,-0.183
15,CCTCCCGC,0.0602
16,GAAGAACC,0.018
17,AATGAATT,0.133
18,GCGAGACC,-0.0986
19,ACTTGTTC,-0.162
20,GCTGACCA,0.131
21,CGAGAACG,-0.0512
22,AGGGATCC,-0.162
23,ATGTCGCG,0.0908
24,AGCACGAG,0.0264
25,GGTATCAA,-0.0259

row,Sequence,PBM E-score
1,AGTCTGCG,-0.199
2,GAAGCGTC,-0.14
3,GAACGGGC,-0.104
4,CCTCCTCG,-0.23
5,CAGGTACC,-0.153
6,TCTCCGCA,-0.0817
7,CACGCAGA,-0.229
8,TATGGGAA,0.0435
9,AAAAACGA,0.272
10,ACTACAAC,0.0873
11,CACATGGG,-0.076
12,AGCATCCC,-0.217
13,AGACCGAT,-0.0063
14,GTTGGGGA,-0.0474
15,AGTGGGTA,-0.167
16,CCAAGCGA,-0.152
17,AAGCGCGG,-0.0766
18,ATGAGGAA,0.141
19,CATGCGGC,-0.0784
20,ATAGCAAA,0.0867
21,GTATGAGA,-0.0324
22,GCAAGCCC,0.0457
23,ATACTGCG,-0.11
24,AGTCACAA,-0.0023
25,CATGGTCC,-0.109

row,Sequence,PBM E-score
1,CAAGTTGG,0.019
2,ATCCCATA,-0.0374
3,CCCGACAC,0.0126
4,AACCAGCA,0.104
5,CTAGAGCC,-0.276
6,CCACAACC,0.111
7,AAGAGAGT,-0.159
8,CGGAAAAG,0.0439
9,AACCTTTC,-0.107
10,ATTGTCGG,0.15
11,GCGTGAGA,-0.0103
12,ATTTTTGC,0.236
13,GACCGCGA,-0.0908
14,CCACTCAC,0.00731
15,CATCCTGC,0.00487
16,GCGATTAC,-0.187
17,CAAGATAG,-0.0407
18,GGTACAGA,0.0601
19,CCTTAATA,0.148
20,GATGCATA,0.0252
21,ACTGGTGA,-0.323
22,CCCCCCCA,-0.133
